Measurements from the supplement of paper PMC3334620.
In all, about 33,000 sequences were measured (“E-score (-0.5 to 0.5)”: median about -0.054, highest 2% from about 0.39 on). Some of the results follow.

biological target: Ylr278c (UniProt Q05854); experiment: PBM E-score (8-mer binding enrichment) (E-score (-0.5 to 0.5)); higher = stronger / more preferred TF binding; most listed sequences are background and not binding sites; details: protein concentration: 200 nM; construct: GST-DNA-binding domain
In short: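 Each ungapped eight-base word and its reverse complement, pooled, received an E-score from the Universal PBM Analysis Suite. Underlying scans, normalised with masliner, recorded fluorescent anti-GST bound to GST-tagged yeast transcription factors. These were applied at about 100-200 nM to universal all-10-mer Agilent arrays double-stranded by primer extension.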

Row | Sequence | PBM E-score
1 | AAGTGTCG | -0.00145
2 | CGTCGGTC | 0.215
3 | ACTAATCG | 0.267
4 | CGCGCTAG | 0.0561
5 | GAGCACGA | 0.0527
6 | GATGATCA | -0.155
7 | GCCATACA | -0.187
8 | ACTAGGGG | -0.17
9 | TGCCTACA | -0.111
10 | GTGGTTAA | -0.13
11 | GCGGGGAC | 0.22
12 | CGTCGTGC | 0.0368
13 | AGGTATAA | -0.0496
14 | AATGTAAA | 0.00046
15 | GTTAGCTA | -0.125
16 | CCGGAATA | 0.434
17 | GTTAAGCA | 0.0147
18 | GCAGACAC | -0.0251
19 | ATCAAATG | 0.058
20 | AGAATGCA | 0.0461
21 | CGGCATGC | 0.279
22 | CGAAAGCA | 0.0148
23 | GACTTCTC | 0.0304
24 | CATTGTCA | -0.116
25 | ATAGGGTC | -0.0639

Row | Sequence | PBM E-score
26 | AGGTAGAC | -0.0819
27 | CCAACCCC | 0.114
28 | ACCATTAC | -0.00509
29 | CAACGTGG | -0.187
30 | TGCACCCA | -0.0149
31 | ATTCACTA | 0.00726
32 | GAGCGGAC | 0.321
33 | TATATCGA | 0.0532
34 | CTCGCGTA | -0.0309
35 | GATGTGGC | -0.106
36 | GTGTACCA | -0.298
37 | CCAGGACC | -0.0892
38 | CGTAAGAC | -0.196
39 | GCGTCCCA | -0.0879
40 | AAAGCCCT | -0.219
41 | TAGTATAA | 0.0315
42 | ATCTGGGG | -0.196
43 | TGAAACAA | -0.0449
44 | TACGCAGA | -0.0137
45 | AACCTCCG | 0.466
46 | CGAGGCCC | 0.129
47 | GGACAACC | 0.087
48 | ATCCATGC | -0.131
49 | CCAACGTA | -0.311
50 | CCCTGAGA | -0.258

Row | Sequence | PBM E-score
51 | ACTGTGCC | -0.202
52 | AAGATCCG | 0.333
53 | GGTTTAGA | -0.0635
54 | CTAACGAC | -0.243
55 | ACGTGTAT | -0.0891
56 | AACACTAG | -0.14
57 | ATACGGCA | 0.112
58 | CCGCGCTA | 0.153
59 | ATCCTCTG | -0.134
60 | AATTGCAT | -0.0174
61 | CTAGATAA | -0.202
62 | CGAAGTAA | 0.0385
63 | GCGATACA | -0.0735
64 | ATGGCCCC | 0.00489
65 | ACATCTGA | -0.165
66 | ATATCAAT | -0.0864
67 | CAGAATTA | 0.0511
68 | CAGTGGCA | -0.225
69 | AGGGATGA | -0.111
70 | ACAAATGT | 0.0363
71 | CAGCAAGG | -0.222
72 | GAGGAAGA | -0.0737
73 | GTTCCATA | -0.0162
74 | ATACTAGA | -0.0205
75 | TTCCAAAA | -0.186

Row | Sequence | PBM E-score
76 | CGCGGGTA | 0.154
77 | AACGACTG | -0.263
78 | AGCTGCAT | -0.232
79 | CACCTACG | -0.0133
80 | AAATTTCC | 0.169
81 | AGTAGGAT | -0.0817
82 | ATGAGTTA | -0.204
83 | ATTGTGCC | -0.105
84 | CAAAGTCG | -0.186
85 | AGTGGTAG | -0.279
86 | GCGCGAAC | 0.132
87 | ATGGTAGG | -0.127
88 | CAGTACGA | -0.107
89 | CTAGATTA | -0.172
90 | ACCGAAAC | 0.185
91 | TCCAACGA | -0.305
92 | CTTAGGGC | -0.0271
93 | AACGGGAT | 0.304
94 | CTATAAAC | 0.0436
95 | CTACGCCC | -0.133
96 | TAGTTCGA | -0.231
97 | AGTAGGGC | 0.0867
98 | CCACCAGG | -0.143
99 | ACCCTTTG | -0.0318
100 | CGTTTTAC | 0.00074

Row | Sequence | PBM E-score
101 | GTGAGTAA | -0.219
102 | ATTAAATC | 0.0829
103 | ATTGATTA | 0.0333
104 | GTATAATA | 0.0966
105 | ACGTCGCC | -0.0817
106 | ACCGGGGG | 0.293
107 | GTCCTAAA | -0.00678
108 | TACAGGCA | -0.178
109 | GTGTACAC | -0.163
110 | CGTGTTAC | 0.0429
111 | AGGGCATA | -0.23
112 | GACGTAGA | -0.185
113 | CAATGTAG | 0.0845
114 | AGGTCACC | -0.0994
115 | AGCCAGAG | -0.0653
116 | AGATCATG | -0.203
117 | ACGCCGGG | 0.365
118 | ACCCAGCT | -0.0898
119 | CCTGTCTC | -0.133
120 | AAGTGCAC | 0.0384
121 | AATAATAC | -0.0178
122 | ACACGCTA | -0.0117
123 | GCGACTTA | -0.0341
124 | AGTCATGA | -0.017
125 | CTCCGTAC | 0.358

Row | Sequence | PBM E-score
126 | CGATAAAG | 0.128
127 | CGCTAAGC | 0.00246
128 | AGGACTGA | -0.0689
129 | AGTCATTA | -0.219
130 | ACAGAGAC | 0.0175
131 | ACACTCGC | 0.075
132 | CGGTGGTA | 0.0617
133 | GTAGGTCA | -0.158
134 | GAGTTGGA | 0.00758
135 | GACATCCA | -0.163
136 | GCCAATCA | -0.267
137 | GAGGCAGC | -0.115
138 | ACCTGCAC | -0.0901
139 | CATATCGC | 0.0136
140 | GGGGGAAC | -0.12
141 | GAAATTGC | 0.089
142 | GGTTACAC | -0.142
143 | AAACCACG | -0.0455
144 | CCCGAGAC | 0.185
145 | ATTTGACG | 0.0515
146 | CCTCCCTC | 0.0572
147 | GCAACTCC | 0.327
148 | GAACCCAA | -0.177
149 | ATCAGATG | -0.225
150 | GGATCTCA | 0.0213

Row | Sequence | PBM E-score
151 | CGTGATAC | -0.152
152 | AATGCGGC | 0.171
153 | GTATGGGA | -0.174
154 | CCTATTGC | -0.127
155 | AAATACCT | -0.0551
156 | AAATTCTC | 0.0592
157 | GCATGGGA | -0.0116
158 | CGACCTGA | -0.183
159 | GATCCCAA | -0.0308
160 | ACACTGGA | -0.185
161 | GCTGTATA | -0.289
162 | AACGCCGT | 0.272
163 | AATCAGCG | 0.139
164 | GACATACA | 0.148
165 | ACTAACTG | 0.0376
166 | CATTTGTC | 0.0384
167 | GTAGAGGA | -0.236
168 | GCCAGAGA | -0.194
169 | CATGAGGG | -0.13
170 | ACCCTCGG | 0.244
171 | CATACTGA | -0.172
172 | GAAGGTTA | -0.0951
